# From PubChem BioAssay AID588795 (National Center for Advancing Translational Sciences (NCATS), 2011)
# In all, about 390,000 compounds went through this assay and about 1,400 (0.36%) were called active. Inconclusive results, whose numbers are uncertain, are shown with a selection of clear calls. The call rests on the fitted dose curve; in most records, active means well fitted inhibition curve with a large enough effect; inconclusive means small, poorly fitted or top-dose-only effect; inactive means no such curve, though single readings can be large or run the other way. Potencies beside an inconclusive call are fits to weak or partial responses and may not hold up.
# Target: Flap endonuclease 1 (Homo sapiens) (UniProt P39748)
# Assay: qHTS Assay for the Inhibitors of Human Flap endonuclease 1 (FEN1). Further: nearly all actives have a fitted effect of over 65% in size.
# Details: Recombinant FEN1 flap cleavage, fluorescence, 15 min; series mostly up to 114 µM
# Description: The major human flap endonuclease FEN1 is an efficient structure-specific enzyme that recognizes and cleaves a 5'-unannealed DNA flap. It belongs to the RAD2 family nucleases, which are involved in DNA metabolism and are highly conserved in prokaryotes and eukaryotes. FEN1 is a key enzyme in DNA replication, repair and maintenance of genomic stability. 5'-flap removal by FEN1 is critical for Okazaki fragment processing during lagging strand DNA synthesis, long-patch base excision repair (LP BER), and regulating or facilitating recombination events. […] Deletion of the yeast FEN1 gene, i.e. rad27, results in an increased frequency of short DNA (3-32 bp) repeats, micro- and mini-satellite formation, trinucleotide repeat expansion, spontaneous recombination events, and a severe growth defect in association with cell cycle arrest in late S/G2 phase. […] Cells from fen1-/- blastocysts show increased apoptotic cell death after ionizing radiation treatment, and chicken cells lacking the fen1 gene are hypersensitive to DNA alkylating agents, e.g. methylmethane sulfonate (MMS) and N-methyl-N'-nitro-N-nitrosoguanidine (MNNG), as well as hydrogen peroxide.
# NIH Chemical Genomics Center [NCGC]
# NIH Molecular Libraries Probe Centers Network [MLPCN]
# Assay Submitter (PI): David Wilson, National Institute of Aging
# Three uL of reagents (buffer in column 3 and 4 as negative control and 10 nM FEN1 in columns 1, 2, and 5-48) were dispensed into 1,536-well black solid-bottomed plate. Compounds (23 nL) were transferred via Kalypsys pin tool equipped with 1536-pin array (10 nL slotted pins, V&P Scientific, San Diego, CA). The plates were then incubated for 15 min at room temperature, and 1 uL substrate (50 nM final concentration) were added to start the reaction read twice at 0 min read and 15 min on ViewLux reader. Throughout the screen, reagent bottle and all liquid lines were chilled and made light-tight to minimize reagent degradation. All screening operations were performed on a fully integrated robotic system (Kalypsys, San Diego, CA) containing one RX-130 and two RX-90 anthropomorphic robotic arms (Staubli, Duncan, SC). Library plates were screened starting from the lowest and proceeding to the highest concentration, and a "double-dipping" step of the highest concentration was required to access higher concentrations of compounds. Vehicle-only plates, with DMSO being pin-transferred to the entire column 5-48 compound area, were inserted uniformly at the beginning and the end of each library in order to monitor for and record any shifts in the background, which can be affected by reagent dispensers or loss in enzyme activity overtime. Screening data was corrected, normalized, and concentration-effect relationships were derived by using publicly-available curve fitting algorithms developed in-house (http://ncgc.nih.gov/pub/openhts). A four parameter Hill equation was fitted to the concentration-response data by minimizing the residual error between the modeled and observed responses.
# Potency means the concentration at half of the fitted maximal effect; tags describe the fitted curve by direction and shape.
# UniProt P39748, sequence (P39748 whole entry, looked up): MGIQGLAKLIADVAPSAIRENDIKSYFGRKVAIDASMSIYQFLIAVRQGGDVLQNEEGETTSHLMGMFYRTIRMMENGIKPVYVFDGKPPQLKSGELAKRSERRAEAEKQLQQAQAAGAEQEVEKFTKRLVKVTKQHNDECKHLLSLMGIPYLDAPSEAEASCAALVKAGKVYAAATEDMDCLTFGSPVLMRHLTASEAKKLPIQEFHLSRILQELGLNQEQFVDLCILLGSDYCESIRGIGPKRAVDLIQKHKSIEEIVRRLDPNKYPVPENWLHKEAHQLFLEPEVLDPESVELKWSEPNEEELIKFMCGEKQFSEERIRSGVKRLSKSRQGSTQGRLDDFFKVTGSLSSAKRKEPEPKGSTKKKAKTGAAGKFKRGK
row,SMILES,Potency
1,CSc1ccc(C=NNc2ccc(S(=O)(=O)Nc3ccccc3C(=O)O)cc2[N+](=O)[O-])cc1,inactive
2,CN(C)c1ccc(/C=C/c2ccc3ncccc3c2)cc1,"inconclusive: 14.1 µM [inhibitor, partial curve, poor fit]"
3,O=C(CSc1nc2ccccc2s1)N1c2ccccc2Sc2ccccc21,inactive
4,Cc1cc(C)c2c(=N)c3ccccc3n(CCCCCCCCn3c4ccccc4c(=N)c4c(C)cc(C)nc43)c2n1,active: 7.08 µM
5,CNc1ccc(/C=C/c2ccccc2)cc1,inactive
6,COc1ccc(/C=C/c2ccc3ccccc3n2)cc1OC,"inconclusive: 39.8 µM [inhibitor, partial curve, poor fit]"
7,COc1cc(/C=N/NC(=O)c2cc(O)cc(O)c2)ccc1OC(=O)c1ccccc1,active: 50.1 µM
8,CCOC(=O)c1cnc2ccc(C)cc2c1Nc1ccc(N2CCOCC2)cc1,"inconclusive: 79.4 µM [inhibitor, partial curve, poor fit]"
9,COC(=O)c1cc2ccc(OC)cc2c2cc(OC)c(OC)cc12,"inconclusive: 79.4 µM [inhibitor, single point]"
10,CCOc1ccc(-c2noc(CSc3nnc(Cc4ccccc4)n3-c3cccc(C)c3)n2)cc1,inactive
11,S=c1[nH]nc2ccccn12,"inconclusive: 89.1 µM [inhibitor, single point]"
12,O=C1NC(=O)C(=Cc2ccco2)S1,inactive
13,CCC(C)NC(=O)CCc1c(C)nc2cc(-c3ccc(OC)cc3OC)nn2c1C (stereo not given),inactive
14,CCn1ccnc1CN(C)Cc1c(C(=O)N2C[C@@H](C)O[C@@H](C)C2)nc2ccc(Cl)cn12,inactive
15,O=C(Cn1nc(-c2ccccc2)nc1-c1ccccc1)OC1CCCCC1,"inconclusive: 79.4 µM [inhibitor, partial curve, poor fit]"
16,CCOC(=O)c1cnc2ccc(OC)cc2c1Nc1ccc(N2CCN(C)CC2)cc1,"inconclusive: 50.1 µM [inhibitor, partial curve]"
17,CCOC(=O)C1=C(C)NC(C)=C(C(=O)OCC)C1/C=C/c1ccccc1,"inconclusive: 79.4 µM [inhibitor, single point]"
18,C/C=C1\COC(C(=O)NCc2cccc(OC)c2OC)(C(F)(F)F)C=C1C=C1CCCCC1 (stereo not given),"inconclusive: 70.8 µM [inhibitor, partial curve, poor fit]"
19,FC(F)(F)c1cnc(Oc2cccc3ccccc23)c(Cl)c1,"inconclusive: 89.1 µM [inhibitor, single point]"
20,Cc1ccccc1NC(=S)NC(=O)/C=C/c1ccco1,active: 79.4 µM
21,COc1cc(-c2noc(C)c2-c2ccc3[nH]ccc3c2)cc(OC)c1OC,"inconclusive: 56.2 µM [inhibitor, partial curve, poor fit]"
22,Cc1ccc(S(=O)(=O)N2CCC(n3c(C)nc4cccnc43)CC2)c(C)c1,inactive

row,SMILES,Potency
1,O=C(Nc1ccc(-c2n[nH]c(=S)o2)cc1)c1ccccc1,inactive
2,Cc1ccc(NS(=O)(=O)c2ccc(N3CCN(c4ccc(O)cc4)CC3)c([N+](=O)[O-])c2)c(C)c1,"inconclusive: 4.47 µM [inhibitor, partial curve, poor fit]"
3,Cc1ccc(O)c(N=Nc2ccccc2)n1,inactive
4,CCOC(=O)C1=C(Cc2ccc(OC)cc2)C(=O)c2ccccc2C1=O,"inconclusive: 79.4 µM [inhibitor, partial curve]"
5,O=C(NC1CCCC1)c1cnn2c(C(F)(F)F)cc(-c3ccco3)nc12,"inconclusive: 79.4 µM [inhibitor, partial curve, poor fit]"
6,COC(=O)c1ccccc1NC(=O)CCS(=O)(=O)c1ccc(Br)cc1,"inconclusive: 31.6 µM [inhibitor, partial curve]"
7,O=C(N=Nc1c(O)n(Cc2ccccc2)c2ccccc12)c1ccncc1,inactive
8,CCCCCCCCCS(=O)(=O)N/N=C/c1cccc([N+](=O)[O-])c1,"inconclusive: 56.2 µM [inhibitor, partial curve, poor fit]"
9,CN(CC(=O)Nc1ccc(F)c(Cl)c1)S(=O)(=O)c1ccc2c(c1)n(C)c(=O)c(=O)n2C,"inconclusive: 39.8 µM [inhibitor, partial curve, poor fit]"
10,O=C1CCC[C@@H]2CC(N(Cc3cc4ccccc4s3)c3ccccc3)C[C@@H]3CCN1[C@H]23 (stereo not given in full),inactive
11,NS(=O)(=O)c1ccc(CCNC(=O)c2ccc3nccnc3c2)cc1,"inconclusive: 56.2 µM [inhibitor, partial curve]"
12,COc1ccc(-c2cn3nc(N4CCCC(C(=O)NCc5ccccc5Cl)C4)sc3n2)cc1 (stereo not given),"inconclusive: 39.8 µM [inhibitor, single point]"
13,Cc1cc(Cl)nc2ccc(Cc3ccc4nc(Cl)cc(C)c4c3)cc12,"inconclusive: 3.55 µM [inhibitor, full curve]"
14,Nc1c(Cl)ncnc1N/N=C/c1ccc2ccccc2n1,"inconclusive: 56.2 µM [inhibitor, partial curve]"
15,CC(C)Cn1cc(NC(=O)N2CCN(c3ccccc3F)CC2)c2ccccc2c1=O,inactive
16,Oc1cc(O)c(/C=C/c2ccnc3ccccc23)c(O)c1,"inconclusive: 35.5 µM [inhibitor, partial curve]"
17,CSc1ccc(CN(C)C(=O)c2cc3ccccc3o2)cc1,"inconclusive: 79.4 µM [inhibitor, partial curve, poor fit]"
18,Cc1ccccc1-c1nc2cc(NC(=O)COc3ccc(F)cc3)ccc2o1,"inconclusive: 79.4 µM [inhibitor, partial curve, poor fit]"
19,Cc1onc(-c2ccccc2Cl)c1C(=O)Nc1sc2c(c1C#N)CCC2,"inconclusive: 56.2 µM [inhibitor, partial curve, poor fit]"
20,Cc1nc(C(=O)NCCO)cc2c1[nH]c1ccccc12,"inconclusive: 17.8 µM [inhibitor, partial curve, poor fit]"
21,CCC(C(=O)Nc1cc(-c2nc3cccnc3s2)ccc1C)c1ccccc1 (stereo not given),"inconclusive: 15.8 µM [inhibitor, partial curve, poor fit]"
22,CC(C)N(C(=O)Nc1ccc2nsnc2c1)C(C)C,"inconclusive: 12.6 µM [inhibitor, full curve, poor fit]"

row,SMILES,Potency
1,C[C@H](NC(=O)c1nc[nH]c1C(=O)N[C@@H](CCCCNC(=O)OC(C)(C)C)C(=O)OC(C)(C)C)C(=O)OCc1ccccc1,"inconclusive: 22.4 µM [inhibitor, partial curve, poor fit]"
2,CCOc1cc(S(=O)(=O)NCc2ccc3c(c2)OCO3)c(C)cc1C,"inconclusive: 79.4 µM [inhibitor, partial curve, poor fit]"
3,C=Cc1ccc(Cn2c(C(=O)O)c(CNCc3ccccc3)c3ccc(C)cc32)cc1,inactive
4,CCOC(=O)c1c(Cc2ccc(Cl)cc2)c[nH]c1C,active: 89.1 µM
5,COc1ccc(OC)c(C(=O)COC(=O)c2ccc([N+](=O)[O-])o2)c1,"inconclusive: 20 µM [inhibitor, full curve, poor fit]"
6,O=C(N/N=C/c1cn(-c2ccccc2)nc1-c1ccccc1)c1ccco1,"inconclusive: 79.4 µM [inhibitor, single point]"
7,CN1CCN(C(c2ccccn2)c2cc(Cl)c3cccnc3c2O)CC1 (stereo not given),inactive
8,O=C(/C=C/c1ccccc1)CC(O)(c1ccccc1)C(F)(F)F (stereo not given),"inconclusive: 25.1 µM [inhibitor, partial curve, poor fit]"
9,O=C(N/N=C/c1ccccn1)c1sc2ccccc2c1Cl,"inconclusive: 39.8 µM [inhibitor, single point]"
10,Cc1ccc(Nc2nc(N)nc(CN3CCc4ccccc4C3)n2)cc1,"inconclusive: 79.4 µM [inhibitor, partial curve, poor fit]"
11,CCOc1cc(C2Nc3cccc4cccc(c34)N2)ccc1O,"inconclusive: 56.2 µM [inhibitor, partial curve, poor fit]"
12,Cc1ccc(OCCC(=O)Nc2ccc(S(=O)(=O)N3CCCC3)cc2)cc1,"inconclusive: 28.2 µM [inhibitor, partial curve, poor fit]"
13,CCOC(=O)C1=C(O)C(=O)N(Cc2cccnc2)C1c1ccc(OC)cc1 (stereo not given),"inconclusive: 44.7 µM [inhibitor, partial curve]"
14,CCc1noc(-c2ccc(N3CCCCC3C)c([N+](=O)[O-])c2)n1 (stereo not given),inactive
15,O=C(Nc1ccc(F)cc1)C(=O)c1c(O)[nH]c2ccc([N+](=O)[O-])cc12,"inconclusive: 56.2 µM [inhibitor, partial curve, poor fit]"
16,O=C(/C=C/c1cn(CC(O)CN2CCCCC2)c2ccccc12)c1cccs1 (stereo not given),"inconclusive: 56.2 µM [inhibitor, partial curve]"
17,COc1ccc(C2CC(c3cccs3)n3nc(N)nc3N2)cc1 (stereo not given),"inconclusive: 31.6 µM [inhibitor, single point]"
18,Cc1ccc(OCCn2c(=S)[nH]c3ccccc32)c(C(C)C)c1,"inconclusive: 50.1 µM [inhibitor, partial curve]"
19,Cc1cc(O)c2c(c1O)C(=O)[C@]13C(=C2O)C(=O)[C@@H]2[C@@H](O)[C@H]1[C@@H]1[C@H](O)[C@H]3C(=O)C3=C(O)c4c(O)cc(C)c(O)c4C(=O)[C@]312,"inconclusive: 56.2 µM [inhibitor, partial curve, poor fit]"
20,Cc1cc(N/N=C/c2ccco2)c2ccccc2n1,inactive
21,COc1ccc(-c2cc(C(F)(F)F)n3nc(C(=O)NCC45CC6CC(CC(C6)C4)C5)cc3n2)cc1,inactive
